# Assay results: PubChem BioAssay AID2546 (National Center for Advancing Translational Sciences (NCATS), 2010)
# The whole screen tested about 310,000 compounds, of which about 11,000 (3.5%) were called active. The shares of active, inactive and inconclusive entries below differ from those in the screen. Calls follow the shape of the dose curve; as a rule, active = well fitted inhibition curve with a large enough effect; inconclusive = small, poorly fitted or top-dose-only effect, or effect the other way; inactive = flat fitted curve, though single readings scatter. No potency is given beside an inconclusive call; the fits are too rough.
# Experiment: VP16 counterscreen qHTS for inhibitors of ROR gamma transcriptional activity;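 also: Gal4-VP16 expression switched on by copper sulfate through the metallothionein promoter; nearly all actives have a fitted effect of over 50% in size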
# Conditions: Drosophila S2 Gal4-VP16 UAS-luciferase, luminescence, 20 h; activity, negative = inhibition: at 53.6 µM (top of the series)
# % is scaled to controls: 0 for no effect and ±100 for the full control effect; potency is read from the fitted curve at half-maximal effect; tags tell the direction and shape of the fitted curve.
SMILES,Potency,"activity, negative = inhibition"
CCC(=O)N1c2ccc(S(=O)(=O)N3CCN(c4ccc([N+](=O)[O-])cc4)CC3)cc2CC1C (stereo not given),"inconclusive [inhibitor, single point]",
CN(C)C(=O)[C@]1(C)C[C@H]1[C@H](NC(=O)CNC(=O)[C@@H]1CCCN1C(=O)[C@]1(C)C[C@H]1[C@H](NC(=O)OCc1ccccc1)c1ccccc1)c1ccccc1,,inactive: -5.3%
Cc1cccc(N2CCN(CCCNC(=O)C3CCCN(c4ncnc5c4nc4n5CCCCC4)C3)CC2C)c1 (stereo not given),,inactive: 2.43%
O=C(NCCc1ccccn1)c1cc(-c2ccc(Cl)cc2)nc2ccccc12,"inconclusive [inhibitor, single point]",
C=CCNc1nc(C(=O)OCC(=O)c2ccc(C)c([N+](=O)[O-])c2)cs1,"inconclusive [activator, single point]",
CCCc1ccc(OCC(O)CN2CCc3ccccc3C2)cc1 (stereo not given),"inconclusive [inhibitor, single point]",
O=C(CC(Nc1ccc(F)cc1)C(=O)OCC(=O)c1cccs1)c1ccccc1 (stereo not given),"inconclusive [inhibitor, single point]",
O=C(N/N=C/c1ccc(O)cc1)c1cccc(C(F)(F)F)c1,,inactive: 2.74%
O=C(CSC1CS(=O)(=O)c2cc([N+](=O)[O-])ccc21)NNC(=O)c1ccccc1 (stereo not given),,inactive: -6.02%
CCCN1C(=O)/C(=C/c2nc3ccccc3c(=O)[nH]2)c2ccccc21,"inconclusive [inhibitor, single point]",
COc1ccccc1-n1cnnc1SCC(=O)Nc1cccc(S(=O)(=O)N2CCCCC2)c1,"inconclusive [inhibitor, single point]",
O=C(NNc1nc(-c2ccc(Cl)cc2)cs1)c1ccco1,active: 5.01 µM,
CCCC(=O)NC(Nc1cc(C(F)(F)F)ccc1Cl)C(Cl)(Cl)Cl (stereo not given),active: 10 µM,
COc1ccc(-c2nnc(SC(C)C(=O)Nc3cccc(Cl)c3)o2)cc1 (stereo not given),"inconclusive [inhibitor, partial curve]",
COc1cc([N+](=O)[O-])cc(/C=N/NC(=O)c2ccc(C)nc2)c1O,active: 0.631 µM,
CCn1c(-c2csc(-c3ccccc3)n2)n[nH]c1=S,active: 6.31 µM,
CS(=O)(=O)N(CC(=O)Nc1ccc(Cl)c(Cl)c1)C1CCCCC1,"inconclusive [inhibitor, single point]",
NC(=O)c1cccc2c1-c1ccccc1/C2=N/NC(N)=S,"inconclusive [inhibitor, single point]",
O=C(NC(=S)Nc1ccccc1F)c1ccc(Br)o1,"inconclusive [inhibitor, single point]",
Clc1ccc(OCCOCCN2CCc3ccccc3C2)c(Cl)c1,"inconclusive [inhibitor, partial curve]",
CCC(=O)N1CCc2cc(S(=O)(=O)NCCC(=O)N3CCc4ccccc4C3)ccc21,"inconclusive [inhibitor, single point]",
CCN(CC)S(=O)(=O)c1ccc(C(=O)OCC(=O)Nc2ccc(-c3nc4ccc(C)cc4s3)cc2)cc1,"inconclusive [inhibitor, full curve]",
C=C(C)COc1ccc(-c2[nH]ncc2-c2ccccc2OC)c(O)c1,active: 12.6 µM,
O=c1[nH]cnc2c1C(c1ccccc1[N+](=O)[O-])c1c(nc[nH]c1=O)O2,,inactive: -4.4%

SMILES,Potency,"activity, negative = inhibition"
COC(=O)C1CCN(C(=O)CCCOc2ccccc2)CC1,"inconclusive [inhibitor, partial curve]",
CCC(CC)NC(=O)COC(=O)c1cc(Br)ccc1Cl,,inactive: 0.141%
COc1ccc(C(CCN2CCOCC2)c2c(OC)cc(OC)c3c(-c4ccccc4)cc(=O)oc23)cc1 (stereo not given),"inconclusive [inhibitor, partial curve]",
CCN(CC)CCN(C(=O)CCS(=O)(=O)c1ccccc1)c1nc2c(C)cc(C)cc2s1,"inconclusive [inhibitor, single point]",
CCC1CSC(Nc2ccc(C(=O)/C=C/c3ccc(OC)c(OC)c3)cc2)=N1 (stereo not given),"inconclusive [inhibitor, single point]",
CCOc1ccc2nc(SCCNS(=O)(=O)c3ccccc3)sc2c1,"inconclusive [activator, single point]",
Oc1c(N=Nc2ccc(F)cc2)ccc2ccccc12,"inconclusive [inhibitor, single point]",
Cc1[nH]ccc(=O)c1Oc1ncc(C(F)(F)F)cc1Cl,,inactive: -4.81%
COCC(=O)N1CCC2(CCCN(C(c3ccccc3)c3ccccc3)C2)CC1,"inconclusive [inhibitor, single point]",
Cc1c(CCC(=O)NCCCn2ccnc2)c(=O)oc2c(C)c3oc4c(c3cc12)CCCC4,"inconclusive [inhibitor, partial curve]",
CN(NS(=O)(=O)c1ccc(Cl)cc1)c1nc(C(F)(F)F)nc2ccccc12,"inconclusive [inhibitor, single point]",
O=C(NNC(=S)Nc1cccc(C(F)(F)F)c1)c1ccccc1Cl,active: 10 µM,
C=CCn1c(-c2ccc(Cl)cc2)cnc1SC(C)C(N)=O (stereo not given),"inconclusive [inhibitor, single point]",
Cn1c(=O)c(-c2cccc(F)c2)nc2cncnc21,,inactive: -1.47%
COc1cccc(CC(=O)Nc2ccccc2N2CCCC2)c1,,inactive: 0.35%
CS(=O)(=O)c1nc(-c2ccc(F)cc2)cc(C(F)(F)F)n1,active: 4.47 µM,
COc1ccc(-c2cc(C(=O)NNC3=NCCC3)c3c(C)nn(-c4ccccc4)c3n2)cc1,"inconclusive [inhibitor, single point]",
N#CC(c1ccc(O)cc1)c1ncc(C(F)(F)F)cc1Cl (stereo not given),,inactive: -9.53%
CC(C)Cn1c(N)c(C(=O)COC(=O)/C=C/c2cccs2)c(=O)n(C)c1=O,"inconclusive [inhibitor, single point]",
COc1ccc(Nc2ncnc3scc(-c4ccc(OC)cc4)c23)cc1,,inactive: -8.01%
COc1ccccc1-c1ccc(=O)n(CC(=O)NC2CCc3ccccc32)n1 (stereo not given),"inconclusive [inhibitor, single point]",
O=C(NC(=S)Nc1ccc2c(c1)OCCO2)c1ccccc1F,"inconclusive [inhibitor, single point]",
COc1cc(Br)c(C2CC(=O)Nc3cc(OC)c(OC)cc32)cc1OC (stereo not given),,inactive: 1.25%
CCOc1ccc2c(c1)-c1c(ssc1=S)C(C)(C)N2C,"inconclusive [inhibitor, single point]",

SMILES,Potency,"activity, negative = inhibition"
O=C(N/N=C/c1cccs1)c1cc(-c2ccncc2)nc2ccccc12,active: 7.08 µM,
COC(=O)c1[nH]c2ccc(C)cc2c1NC(=O)CN1CCN(c2ccccc2)CC1,active: 11.2 µM,
O=C(NCc1ccco1)c1ccc(CS(=O)Cc2ccc(Cl)cc2)o1 (stereo not given),,inactive: 13.3%
CCOc1ccc(NC(=S)N(CCc2ccncc2)C(C)C)cc1,,inactive: -13%
O=C1CSC(c2c(F)cccc2Cl)N1c1cccc(F)c1 (stereo not given),,inactive: -3.47%
N#C/C(C(=O)N1CCCCC1)=C1/N=C(N)c2ccccc21,,inactive: -0.571%
O=C(CSc1nnc(COc2ccc3c(c2)CCCC3)o1)Nc1ccc(F)cc1,"inconclusive [inhibitor, partial curve]",
COc1cc(CCC(=O)Nc2c(C(=O)N3CCN(c4ccccc4)CC3)oc3ccccc23)on1,,inactive: -16%
Cc1nc2ccc(NC(=O)c3ccc(F)c(S(=O)(=O)N4CCOCC4)c3)cc2s1,"inconclusive [inhibitor, partial curve]",
CCOC(=O)C1=C(N)Oc2cc(O)ccc2C1c1cccc(Cl)c1 (stereo not given),"inconclusive [inhibitor, partial curve]",
CCOc1ccc(NC(=S)Nc2ccc3nsnc3c2)cc1,"inconclusive [inhibitor, single point]",
CCCCCCCCCCCCCCCC(=O)OC/C=C(C)/C=C/C=C(C)/C=C/C1=C(C)CCCC1(C)C,"inconclusive [inhibitor, full curve, poor fit]",
COc1ccc(-n2ccc3ccccc32)cc1,,inactive: 3.42%
Cc1ccc(S(=O)(=O)Oc2cccc(/C=N/n3cnnc3)c2)cc1,"inconclusive [inhibitor, partial curve]",
CC(C)N1CCc2c(sc(NC(=O)c3ccc([N+](=O)[O-])o3)c2C(N)=O)C1,"inconclusive [inhibitor, partial curve]",
CC(C)CNC(=S)N1CCC(Cc2ccccc2)CC1,"inconclusive [inhibitor, single point]",
O=C(Nc1ccc(-c2nc3ccccc3s2)c(O)c1)C1=COCCO1,"inconclusive [inhibitor, partial curve]",
CCOC(=O)CCN1C(=O)[C@H]2[C@H]3[C@H](O)[C@H](O)C/C(=N/O[C@@H]4O[C@@H](COC(C)=O)[C@@H](OC(C)=O)[C@@H](OC(C)=O)[C@H]4OC(C)=O)[C@H]3CC[C@@H]2C1=O,,inactive: -7.04% [at 10 µM]
Cc1cc(C)cc(-n2c3nc4ccccc4nc3c3c(=O)n(Cc4ccco4)cnc32)c1,active: 11.2 µM,
O=c1c2cc3c(nc2[nH]c(=S)n1-c1ccccc1)CCCC3,"inconclusive [inhibitor, full curve, poor fit]",
CC(=O)Nc1ccc(NC(=O)c2cc(-c3ccc(C)c(C)c3O)n[nH]2)cc1,,inactive: -21.3%
O=C(CNC(=O)c1[nH]cnc1C(=O)NC(c1ccccc1)c1ccccc1)OCc1ccccc1,"inconclusive [inhibitor, single point]",
